The other results are listed elsewhere or left out.

B1: PhoQ; a variant is named by its letters at X, in order, P23837 (parent)
chain: MKKLLRLFFPLSLRVRFLLATAAVVLVLSLAYGMVALIGYSVSFDKTTFRLLRGESNLFYTLAKWENNKLHVELPENIDKQSPTMTLIYDENGQLLWAQRDVPWLMKMIQPDWLKSNGFHEIEADVNDTSLLLSGDHSIQQQLQEVREDDDDAEMTHSVAVNVYPATSRMPKLTIVVVDTIPVELKSSYMVWSWFIYVLSANLLLVIPLLWVAAWWSLRPIEALAKEVRELEEHNRELLNPATTRELTSLVRNLNRLLKSERERYDKYRTTLTDLTHSLKTPLXXLQXXLRSLRSEKMSVSDAEPVMLEQISRISQQIGYYLHRASMRGGTLLSRELHPVAPLLDNLTSALNKVYQRKGVNISLDISPEISFVGEQNDFVEVMGNVLDNACKYCLEFVEISARQTDEHLYIVVEDDGPGIPLSKREVIFDRGQRVDTLRPGQGVGLAVAREITEQYEGKIVAGESMLGGARMEVIFGRQHSAPKDE

In the experiment the parent is B1. Description: enrichment ratio after two sorts for PhoP signalling (ratio (wild type AVST 3.29)); higher = more functional. The note with it: with PhoP (E. coli).
As for YVKL, the enrichment ratio is not above 0.25. In the case of LNLI, the enrichment ratio was not above 0.25.

Regarding SFKM, the enrichment ratio was not above 0.25. Under NPSC stands not above 0.25. The value for TNGI was 15.2; that for APGM was not above 0.25; that for YKAW was not above 0.25.

On to MCKW, for which the enrichment ratio is not above 0.25. In the case of TNPL, the enrichment ratio is not above 0.25. Consider RFPQ, for which the enrichment ratio was not above 0.25. For TRDQ, the enrichment ratio was not above 0.25.

On to FCNQ, for which the enrichment ratio is not above 0.25. TNKW: the enrichment ratio is not above 0.25. Turning to TGNR, the enrichment ratio is not above 0.25. As to HRVQ, the enrichment ratio was not above 0.25. For the variant DMDI, the enrichment ratio is not above 0.25. For VLYD, the enrichment ratio was not above 0.25. In the case of HEFL, the enrichment ratio was not above 0.25. Turning to IELM, the enrichment ratio came to 10. As for PKWI, the enrichment ratio was not above 0.25. The value for LHPF was not above 0.25; that for MAWP was not above 0.25. Turning to MLDW, the enrichment ratio is not above 0.25. Under DRKM stands not above 0.25; under MRDW, not above 0.25; under QTYW, not above 0.25. As to GRFW, the enrichment ratio is not above 0.25. GILE: the enrichment ratio was found to be 4.81. In the case of SIDN, the enrichment ratio was not above 0.25. With RNCI, the enrichment ratio was not above 0.25.

For HSDR, the enrichment ratio is not above 0.25.

As to IVHF, the enrichment ratio was not above 0.25. With YKVV, the enrichment ratio was not above 0.25.

On to FECG, for which the enrichment ratio stood at 30.4.

As to PRVN, the enrichment ratio is not above 0.25. For the variant DMIP, the enrichment ratio was not above 0.25.

For the variant SRCA, the enrichment ratio was not above 0.25.

KVCC: the enrichment ratio was not above 0.25. As for ITCD, the enrichment ratio was not above 0.25.

Take ALFI: the enrichment ratio was not above 0.25. On to YEKG, for which the enrichment ratio was not above 0.25. For the variant GCVP, the enrichment ratio is not above 0.25.

In the case of MGYT, the enrichment ratio turned out to be 10.8. As to KNQC, the enrichment ratio is not above 0.25.

For KKFE, the enrichment ratio is not above 0.25. Turning to DAHC, the enrichment ratio was not above 0.25. Turning to EWLH, the enrichment ratio is not above 0.25. GCCP: the enrichment ratio was not above 0.25. With AQIY, the enrichment ratio was found to be 24.

Take FIPQ: the enrichment ratio was not above 0.25. The value for DCEA was not above 0.25; that for PEFM was not above 0.25. As for QPRT, the enrichment ratio was not above 0.25. Take WTIG: the enrichment ratio was not above 0.25. With KPVV, the enrichment ratio was not above 0.25. CLII: the enrichment ratio is not above 0.25. Regarding PLQC, the enrichment ratio was not above 0.25. Consider VVLY, for which the enrichment ratio is not above 0.25. Regarding MRNK, the enrichment ratio was not above 0.25. Turning to SADV, the enrichment ratio is not above 0.25. With YFHD, the enrichment ratio is not above 0.25. Consider YICR, for which the enrichment ratio is not above 0.25. For WLVF, the enrichment ratio is not above 0.25. For the variant DKCW, the enrichment ratio was not above 0.25. Turning to RRQL, the enrichment ratio is not above 0.25. As for KIGY, the enrichment ratio was not above 0.25. As to VEWT, the enrichment ratio is not above 0.25. WVRR: the enrichment ratio is not above 0.25. DHDE: the enrichment ratio is not above 0.25. With KLRW, the enrichment ratio is not above 0.25. Turning to ERLI, the enrichment ratio is not above 0.25. As for DERV, the enrichment ratio was not above 0.25.

As to PSFP, the enrichment ratio was not above 0.25. With YWEF, the enrichment ratio was not above 0.25.

On to MLII, for which the enrichment ratio is not above 0.25. On to PFHT, for which the enrichment ratio was not above 0.25.

In the case of PACS, the enrichment ratio was not above 0.25. Turning to FAAE, the enrichment ratio is not above 0.25.

As for YVMP, the enrichment ratio was not above 0.25. On to KDIK, for which the enrichment ratio was not above 0.25. For NAYN, the enrichment ratio is not above 0.25.

TLIP: the enrichment ratio is not above 0.25. Take PHQI: the enrichment ratio was not above 0.25. For SDYY, the enrichment ratio was not above 0.25.

For the origin of these results see a collection of fitness landscapes (doi:10.1126/science.1257360).
